From the supplement of paper PMC8728848
Some of the results follow.

What was measured:
Assay in all cases: glycan array binding signal (z-score within array); higher = stronger binding
Conditions in all cases: glycan notation: IUPAC condensed, linker removed
[1] = molecular target: Fuc(a1-2)Gal(b1-4)GlcNAc(b1-3)Gal(b1-4)GlcNAc(b1-2)Man(a1-3)[Fuc(a1-2)Gal(b1-4)GlcNAc(b1-3)Gal(b1-4)GlcNAc(b1-2)Man(a1-6)]Man(b1-4)GlcNAc(b1-4)GlcNAc
Procedure, shortened: (§1)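 The Consortium for Functional Glycomics database supplied 3228 glycan arrays, of which those lacking an available protein sequence were dropped. The binding signal, a within-array Z-score, was averaged across arrays of the same protein sequence and across linkers. Negative scores can be read as non-binding.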

[2] = molecular target: Fuc(a1-2)Gal(b1-4)GlcNAc(b1-3)Gal(b1-4)GlcNAc(b1-3)Gal(b1-4)GlcNAc
Procedure, shortened: as §1

[3] = molecular target: Fuc(a1-2)Gal(b1-4)GlcNAc(b1-3)GalNAc
Procedure, shortened: as §1

[4] = molecular target: Fuc(a1-2)Gal(b1-4)GlcNAc(b1-3)[Fuc(a1-2)Gal(b1-4)GlcNAc(b1-6)]GalNAc
Procedure, shortened: as §1

[5] = molecular target: Fuc(a1-2)Gal(b1-4)GlcNAc(b1-3)[Fuc(a1-3)[Gal(b1-4)]GlcNAc(b1-6)]Gal(b1-4)Glc
Procedure, shortened: as §1

[6] = molecular target: Fuc(a1-2)Gal(b1-4)GlcNAc(b1-6)GalNAc
Procedure, shortened: as §1

[7] = molecular target: Fuc(a1-2)Gal(b1-4)GlcNAc6S
Procedure, shortened: as §1

[8] = molecular target: Fuc(a1-2)Gal(b1-4)[Fuc(a1-3)]GlcNAc
Procedure, shortened: as §1

[9] = molecular target: Fuc(a1-2)Gal(b1-4)[Fuc(a1-3)]GlcNAc(b1-2)Man(a1-3)[Fuc(a1-2)Gal(b1-4)[Fuc(a1-3)]GlcNAc(b1-2)Man(a1-6)]Man(b1-4)GlcNAc(b1-4)[Fuc(a1-6)]GlcNAc
Procedure, shortened: as §1

[10] = molecular target: Fuc(a1-2)Gal(b1-4)[Fuc(a1-3)]GlcNAc(b1-2)[Fuc(a1-2)Gal(b1-4)[Fuc(a1-3)]GlcNAc(b1-4)]Man(a1-3)[Fuc(a1-2)Gal(b1-4)[Fuc(a1-3)]GlcNAc(b1-2)Man(a1-6)]Man(b1-4)GlcNAc(b1-4)GlcNAc
Procedure, shortened: as §1

[11] = molecular target: Fuc(a1-2)Gal(b1-4)[Fuc(a1-3)]GlcNAc(b1-3)Gal(b1-4)[Fuc(a1-3)]GlcNAc
Procedure, shortened: as §1

[12] = molecular target: Fuc(a1-2)Gal(b1-4)[Fuc(a1-3)]GlcNAc(b1-3)Gal(b1-4)[Fuc(a1-3)]GlcNAc(b1-3)Gal(b1-4)[Fuc(a1-3)]GlcNAc
Procedure, shortened: as §1

[13] = molecular target: Fuc(a1-2)Gal(b1-4)[Fuc(a1-3)]GlcNAc(b1-3)GalNAc
Procedure, shortened: as §1

[14] = molecular target: Fuc(a1-2)Gal(b1-4)[Fuc(a1-3)]GlcNAc(b1-3)[Neu5Ac(a2-6)Gal(b1-4)GlcNAc(b1-6)]Gal(b1-4)Glc
Procedure, shortened: as §1

[15] = molecular target: Fuc(a1-2)Gal3S(b1-4)GlcNAc
Procedure, shortened: as §1

[16] = molecular target: Fuc(a1-2)Gal6S(b1-3)GlcNAc
Procedure, shortened: as §1

[17] = molecular target: Fuc(a1-2)Gal6S(b1-3)GlcNAc6S
Procedure, shortened: as §1

Fuc(a1-2)Gal6S(b1-4)Glc = molecular target: Fuc(a1-2)Gal6S(b1-4)Glc
Procedure, shortened: as §1

[18] = molecular target: Fuc(a1-2)Gal6S(b1-4)Glc6S
Procedure, shortened: as §1

Fuc(a1-2)[Gal(a1-3)]Gal = molecular target: Fuc(a1-2)[Gal(a1-3)]Gal
Procedure, shortened: as §1

[19] = molecular target: Fuc(a1-2)[Gal(a1-3)]Gal(b1-3)GalNAc
Procedure, shortened: as §1

[20] = molecular target: Fuc(a1-2)[Gal(a1-3)]Gal(b1-3)GalNAc(b1-3)Gal(a1-4)Gal(b1-4)Glc
Procedure, shortened: as §1

[21] = molecular target: Fuc(a1-2)[Gal(a1-3)]Gal(b1-3)GlcNAc
Procedure, shortened: as §1

[22] = molecular target: Fuc(a1-2)[Gal(a1-3)]Gal(b1-3)GlcNAc(b1-2)Man(a1-3)[Fuc(a1-2)[Gal(a1-3)]Gal(b1-3)GlcNAc(b1-2)Man(a1-6)]Man(b1-4)GlcNAc(b1-4)GlcNAc
Procedure, shortened: as §1

[23] = molecular target: Fuc(a1-2)[Gal(a1-3)]Gal(b1-3)GlcNAc(b1-2)Man(a1-3)[Fuc(a1-2)[Gal(a1-3)]Gal(b1-3)GlcNAc(b1-2)Man(a1-6)]Man(b1-4)GlcNAc(b1-4)[Fuc(a1-6)]GlcNAc
Procedure, shortened: as §1

[24] = molecular target: Fuc(a1-2)[Gal(a1-3)]Gal(b1-3)GlcNAc(b1-3)GalNAc
Procedure, shortened: as §1

[25] = molecular target: Fuc(a1-2)[Gal(a1-3)]Gal(b1-3)GlcNAc(b1-6)GalNAc
Procedure, shortened: as §1

[26] = molecular target: Fuc(a1-2)[Gal(a1-3)]Gal(b1-4)Glc
Procedure, shortened: as §1

[27] = molecular target: Fuc(a1-2)[Gal(a1-3)]Gal(b1-4)GlcNAc
Procedure, shortened: as §1

[28] = molecular target: Fuc(a1-2)[Gal(a1-3)]Gal(b1-4)GlcNAc(b1-2)Man
Procedure, shortened: as §1

[29] = molecular target: Fuc(a1-2)[Gal(a1-3)]Gal(b1-4)GlcNAc(b1-2)Man(a1-3)[Fuc(a1-2)[Gal(a1-3)]Gal(b1-4)GlcNAc(b1-2)Man(a1-6)]Man(b1-4)GlcNAc(b1-4)GlcNAc
Procedure, shortened: as §1

[30] = molecular target: Fuc(a1-2)[Gal(a1-3)]Gal(b1-4)GlcNAc(b1-2)Man(a1-3)[Fuc(a1-2)[Gal(a1-3)]Gal(b1-4)GlcNAc(b1-2)Man(a1-6)]Man(b1-4)GlcNAc(b1-4)[Fuc(a1-6)]GlcNAc
Procedure, shortened: as §1

[31] = molecular target: Fuc(a1-2)[Gal(a1-3)]Gal(b1-4)GlcNAc(b1-3)GalNAc
Procedure, shortened: as §1

[32] = molecular target: Fuc(a1-2)[Gal(a1-3)]Gal(b1-4)GlcNAc(b1-3)[Fuc(a1-2)[Gal(a1-3)]Gal(b1-4)GlcNAc(b1-6)]GalNAc
Procedure, shortened: as §1

[33] = molecular target: Fuc(a1-2)[Gal(a1-3)]Gal(b1-4)GlcNAc(b1-6)GalNAc
Procedure, shortened: as §1

[34] = molecular target: Fuc(a1-2)[Gal(a1-3)]Gal(b1-4)[Fuc(a1-3)]Glc
Procedure, shortened: as §1

[35] = molecular target: Fuc(a1-2)[Gal(a1-3)]Gal(b1-4)[Fuc(a1-3)]GlcNAc
Procedure, shortened: as §1

B1: SRA-1 (Homo sapiens), P21757 (protein)
chain: MEQWDHFHNQQEDTDSCSESVKFDARSMTALLPPNPKNSPSLQEKLKSFKAALIALYLLVFAVLIPLIGIVAAQLLKWETKNCSVSSTNANDITQSLTGKGNDSEEEMRFQEVFMEHMSNMEKRIQHILDMEANLMDTEHFQNFSMTTDQRFNDILLQLSTLFSSVQGHGNAIDEISKSLISLNTTLLDLQLNIENLNGKIQENTFKQQEEISKLEERVYNVSAEIMAMKEEQVHLEQEIKGEVKVLNNITNDLRLKDWEHSQTLRNITLIQGPPGPPGEKGDRGPTGESGPRGFPGPIGPPGLKGDRGAIGFPGSRGLPGYAGRPGNSGPKGQKGEKGSGNTLTPFTKVRLVGGSGPHEGRVEILHSGQWGTICDDRWEVRVGQVVCRSLGYPGVQAVHKAAHFGQGTGPIWLNEVFCFGRESSIEECKIRQWGTRACSHSEDAGVTCTL
Q: For B1, which “glycan array binding signal (z-score)” value [1] is on record?
A: 0.064

Q: And the “glycan array binding signal (z-score)” value [2]?
A: 0.202

Q: And the “glycan array binding signal (z-score)” value [3]?
A: -0.296

Q: What about the “glycan array binding signal (z-score)” value [4] of the same binder?
A: 1.17

Q: What about the “glycan array binding signal (z-score)” value [5] of the same binder?
A: -0.419

Q: What about the “glycan array binding signal (z-score)” value [6] of the same binder?
A: 0.726

Q: What about the “glycan array binding signal (z-score)” value [7] of the same binder?
A: -0.501

Q: What about the “glycan array binding signal (z-score)” value [8] of the same binder?
A: -0.093

Q: And the “glycan array binding signal (z-score)” value [9]?
A: -0.18

Q: What about the “glycan array binding signal (z-score)” value [10] of the same binder?
A: 0.326

Q: What about the “glycan array binding signal (z-score)” value [11] of the same binder?
A: -0.376

Q: What about the “glycan array binding signal (z-score)” value [12] of the same binder?
A: 0.398

Q: What about the “glycan array binding signal (z-score)” value [13] of the same binder?
A: -0.09

Q: What about the “glycan array binding signal (z-score)” value [14] of the same binder?
A: 0.274

Q: What about the “glycan array binding signal (z-score)” value [15] of the same binder?
A: -0.394

Q: What about the “glycan array binding signal (z-score)” value [16] of the same binder?
A: -0.029

Q: What about the “glycan array binding signal (z-score)” value [17] of the same binder?
A: -0.128

Q: What about the “glycan array binding signal (z-score)” value (Fuc(a1-2)Gal6S(b1-4)Glc) of the same binder?
A: -0.299

Q: What about the “glycan array binding signal (z-score)” value [18] of the same binder?
A: -0.013

Q: What about the “glycan array binding signal (z-score)” value (Fuc(a1-2)[Gal(a1-3)]Gal) of the same binder?
A: 0.705

Q: And the “glycan array binding signal (z-score)” value [19]?
A: 0.335

Q: And the “glycan array binding signal (z-score)” value [20]?
A: -0.145

Q: What about the “glycan array binding signal (z-score)” value [21] of the same binder?
A: -0.247

Q: And the “glycan array binding signal (z-score)” value [22]?
A: -0.063

Q: What about the “glycan array binding signal (z-score)” value [23] of the same binder?
A: -0.435

Q: What about the “glycan array binding signal (z-score)” value [24] of the same binder?
A: -0.365

Q: And the “glycan array binding signal (z-score)” value [25]?
A: 0.193

Q: What about the “glycan array binding signal (z-score)” value [26] of the same binder?
A: -0.418

Q: And the “glycan array binding signal (z-score)” value [27]?
A: 0.489

Q: What about the “glycan array binding signal (z-score)” value [28] of the same binder?
A: -0.764

Q: What about the “glycan array binding signal (z-score)” value [29] of the same binder?
A: -0.296

Q: What about the “glycan array binding signal (z-score)” value [30] of the same binder?
A: -0.54

Q: What about the “glycan array binding signal (z-score)” value [31] of the same binder?
A: -0.281

Q: What about the “glycan array binding signal (z-score)” value [32] of the same binder?
A: 0.157

Q: And the “glycan array binding signal (z-score)” value [33]?
A: -0.283

Q: What about the “glycan array binding signal (z-score)” value [34] of the same binder?
A: -0.504

Q: And the “glycan array binding signal (z-score)” value [35]?
A: 0.193
